# Measured values reported in PubChem BioAssay AID1460 (National Center for Advancing Translational Sciences (NCATS), 2008).
# In all, about 270,000 compounds went through this assay and about 5,800 (2.1%) were called active. Inconclusive means that the source gave no clear call. Such entries were picked first, then a sample of the others. Calls come from the whole dose curve; as a rule, active = well fitted inhibition curve with a large enough effect; inconclusive = small, poorly fitted or top-dose-only effect; inactive = flat fitted curve, though single readings scatter. Potencies of inconclusive entries are doubtful fits and often do not repeat.
# Target: Microtubule-associated protein tau (Homo sapiens) (UniProt P10636)
# Assay: qHTS for Inhibitors of Tau Fibril Formation, Thioflavin T Binding; note: nearly all actives have a fitted effect of over 55% in size
# Details: recombinant tau K18 P301L (four-repeat tau fragment), heparin-induced fibrillization, ThT fluorescence; series mostly up to 57.4 µM
# Method in brief: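 K18 P301L tau (15 uM + 0.24 uM Alexa 594-tagged), heparin 20 uM, NaOAc pH 7, 6 h 37 C; ThT 30 uM, 1 h RT, ex 450/em 510 nm.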
# Potency is the fitted concentration of half-maximal effect; tags give direction and shape of the fitted curve.
# UniProt P10636, sequence (P10636 whole entry, looked up): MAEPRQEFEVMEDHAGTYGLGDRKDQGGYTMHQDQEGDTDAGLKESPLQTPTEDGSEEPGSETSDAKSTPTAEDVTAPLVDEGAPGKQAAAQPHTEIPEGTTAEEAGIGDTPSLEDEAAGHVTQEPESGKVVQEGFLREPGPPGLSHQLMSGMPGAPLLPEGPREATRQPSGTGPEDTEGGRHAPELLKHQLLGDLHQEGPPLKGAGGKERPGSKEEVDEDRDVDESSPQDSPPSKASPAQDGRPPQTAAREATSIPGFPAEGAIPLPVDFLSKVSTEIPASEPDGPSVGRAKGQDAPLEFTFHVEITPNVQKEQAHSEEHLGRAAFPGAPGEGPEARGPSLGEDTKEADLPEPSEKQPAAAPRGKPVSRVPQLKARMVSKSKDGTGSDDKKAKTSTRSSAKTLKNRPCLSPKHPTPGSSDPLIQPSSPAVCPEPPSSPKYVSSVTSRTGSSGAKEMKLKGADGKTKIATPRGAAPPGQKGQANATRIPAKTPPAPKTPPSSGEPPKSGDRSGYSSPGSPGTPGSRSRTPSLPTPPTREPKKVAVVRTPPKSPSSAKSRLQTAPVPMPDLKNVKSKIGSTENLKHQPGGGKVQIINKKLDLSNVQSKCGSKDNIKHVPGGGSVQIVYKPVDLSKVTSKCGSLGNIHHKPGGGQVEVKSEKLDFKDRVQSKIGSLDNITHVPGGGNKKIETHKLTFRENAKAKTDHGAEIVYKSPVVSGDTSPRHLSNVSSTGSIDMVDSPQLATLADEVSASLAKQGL
row,Compound,Potency
1,CC(=C\C(=O)O)/C(=C/c1ccc(C)o1)C(=O)O,"inconclusive: 25.1 µM [inhibitor, single point]"
2,O=c1[nH]nc(CNc2ccc(O)cc2)c2ccccc12,active: 31.6 µM
3,CCOc1ccc(C(=O)NCC(c2ccc3c(c2)OCO3)N2CCN(c3ccc(F)cc3)CC2)cc1 (centres undefined),"inconclusive: 15.8 µM [inhibitor, partial curve]"
4,CC(=O)Nc1ccc(NS(=O)(=O)c2ccc3[nH]c4c(c3c2)CCCCC4)cc1,"inconclusive: 44.7 µM [inhibitor, single point]"
5,CC(=O)Oc1cc2c(C(=O)NCCCN3CCOCC3)c(C)oc2c2ccccc12,"inconclusive: 12.6 µM [inhibitor, partial curve]"
6,COC(=O)c1ccccc1NC(=O)Nc1cccs1,"inconclusive: 25.1 µM [inhibitor, single point]"
7,COc1cc(CNC2CCCC2)cc(OC)c1,inactive
8,CCC(C)NC(=O)N1c2ccccc2Sc2ccccc21 (centres undefined),"inconclusive: 39.8 µM [inhibitor, single point]"
9,O=C1COc2ccc(C(=O)COC(=O)c3ccc4ccccc4n3)cc2N1,"inconclusive: 1.58 µM [inhibitor, full curve]"
10,Cc1ccc(CNc2ccc(O)cc2)cc1,active: 3.55 µM
11,O=C(/C=C/c1cccnc1)c1cc(F)ccc1O,inactive
12,COc1ccc(/C=N/Nc2ccc([N+](=O)[O-])cc2S(=O)(=O)N2CCN(C)CC2)cc1,"inconclusive: 2.24 µM [inhibitor, full curve]"
13,Cc1ccnc(N=Cc2c(O)ccc3oc4c(c23)CCCC4)c1,"inconclusive: 25.1 µM [inhibitor, partial curve]"
14,O=C(CNc1ccc(Oc2ccccc2)cc1)N1CCOCC1,inactive
15,CCOc1ccc(/C=N/Nc2ccccn2)cc1OC,"inconclusive: 3.98 µM [inhibitor, partial curve]"
16,CCC(=O)Nc1nc2ccccc2n1Cc1ccccc1,inactive
17,Cc1n[nH]c(=S)n(NC(=O)/C=C/C(=O)Nn2c(=S)[nH]nc(C)c2=O)c1=O,"inconclusive: 15.8 µM [inhibitor, partial curve]"
18,Cc1nc2c(sc3nc(N4CCOCC4)c4c(c32)CC(C)(C)OC4)c(-c2ccc(Cl)cc2)c1C(=O)O,"inconclusive: 15.8 µM [inhibitor, partial curve]"
19,CCN(CC)c1ccc(/C=N/NC(=O)c2cnccn2)cc1,active: 14.1 µM
20,CC(C)(C)c1cc(C(C)(C)C)c2oc(=O)c(-c3nc4ccc(C(=O)O)cc4[nH]3)cc2c1,"inconclusive: 17.8 µM [inhibitor, partial curve]"
21,COc1ccc(-c2nnc(SCc3ccccc3F)o2)cc1,"inconclusive: 35.5 µM [inhibitor, single point]"
22,Cc1sc2nc(CN3CCOCC3)nc(NS(=O)(=O)c3ccc4c(c3)OCCO4)c2c1C,inactive
23,COc1cc(CN(C(=O)c2ccc(OC(C)C)cc2)C2CCS(=O)(=O)C2)cc(OC)c1OC (centres undefined),"inconclusive: 39.8 µM [inhibitor, single point]"
24,Clc1ccc(-c2nc(/C=N/N3CCOCC3)c3ccccn23)cc1,"inconclusive: 15.8 µM [inhibitor, partial curve]"
25,NC(=O)C1CCN(C2CC(=O)N(c3ccc(F)c(Cl)c3)C2=O)CC1 (centres undefined),inactive

row,Compound,Potency
1,O=Nc1c(O)n(Cc2cccc(Cl)c2)c2ccccc12,"inconclusive: 20 µM [inhibitor, partial curve]"
2,Cc1c(N2C(=O)/C(=C/c3ccccc3)SC2=S)c(=O)n(-c2ccccc2)n1C,"inconclusive: 12.6 µM [inhibitor, partial curve]"
3,C#CCN1C(=O)C(O)(CC(=O)c2ccc(OC)c(OC)c2)c2ccccc21 (centres undefined),inactive
4,NC(C(=O)NC1C(=O)N2C(C(=O)O)=C(Cl)CSC12)c1ccccc1 (centres undefined),active: 14.1 µM
5,CCOC(=O)CCc1c(C)nc(-n2[nH]c(C)c(CCO)c2=O)[nH]c1=O,"inconclusive: 31.6 µM [inhibitor, single point]"
6,C=CCc1ccc(OCCCOc2ccc(C)c(C)c2)c(OC)c1,"inconclusive: 20 µM [inhibitor, partial curve]"
7,CCc1ccccc1Nc1ncnc2c1cnn2-c1ccc(Cl)cc1,"inconclusive: 7.94 µM [inhibitor, partial curve]"
8,OC(CNCCc1ccc(C(F)(F)F)cc1)COc1ccc2ccccc2c1 (centres undefined),"inconclusive: 25.1 µM [inhibitor, single point]"
9,CSCCC(NS(=O)(=O)c1cccs1)C(=O)Nc1ccc(C)c(Cl)c1 (centres undefined),inactive
10,CCOC(=O)c1cnc2ccc(C(=O)OC)cc2c1Nc1ccc(N2CCOCC2)cc1,active: 14.1 µM
11,Cc1nc(C)c(-c2csc(NCCc3ccccc3)n2)s1,"inconclusive: 12.6 µM [inhibitor, partial curve]"
12,O=C(c1cccc2cccc(O)c12)N1CCCCC1,"inconclusive: 39.8 µM [inhibitor, single point]"
13,C/C(CCc1ccco1)=N\NC(=O)CNc1cccc2ccccc12,"inconclusive: 15.8 µM [inhibitor, partial curve]"
14,Cc1cc2c(cc(C(=O)OCC(=O)NCc3cccs3)n2C(C)C)o1,"inconclusive: 20 µM [inhibitor, single point]"
15,O=S(=O)(c1cnc(Cl)c(Br)c1)N1CCCCCC1,"inconclusive: 8.91 µM [inhibitor, single point]"
16,O=C(Nc1ccc(O)cc1)/C(=C\C=C\c1ccccc1)NC(=O)c1ccccc1,"inconclusive: 5.01 µM [inhibitor, full curve]"
17,CNC(=S)N(CCc1c(C)[nH]c2ccc(C)cc12)Cc1ccco1,"inconclusive: 20 µM [inhibitor, partial curve]"
18,CN(C)c1cc2c(cc1NC(=O)c1ccc(F)cc1)n(C)c(=O)n2C,"inconclusive: 15.8 µM [inhibitor, single point]"
19,COc1ccc(CNC(=O)CCSCc2cccc(Cl)c2)c(OC)c1,inactive
20,COCCN1C(=O)C(CC(=O)Nc2ccccc2)SC1=Nc1ccc(OC)cc1 (centres undefined),inactive
21,Cc1cccc(NC(=S)NNC(=O)c2csc3c2CCCC3)c1,"inconclusive: 28.2 µM [inhibitor, single point]"
22,C=CCSc1nc(Oc2ccccc2)c2sccc2n1,"inconclusive: 22.4 µM [inhibitor, partial curve]"
23,Cc1ccccc1OCc1ccc(-c2nc(C#N)c(N3CCN(c4ccccc4)CC3)o2)o1,inactive
24,Cc1ccccc1-c1nc(CS(=O)(=O)CC(=O)NCc2ccccc2)c(C)o1,"inconclusive: 14.1 µM [inhibitor, partial curve]"
25,CCOC(=O)c1ccc(NC(=O)CSc2nnc(COc3ccccc3)n2C)cc1,"inconclusive: 1.26 µM [inhibitor, full curve, poor fit]"

row,Compound,Potency
1,O=C(NCCCc1nc2ccccc2n1Cc1ccccc1)C1CCCCC1,inactive
2,CC(C)(C)c1ccc(/C=N/n2cnnc2)cc1,inactive
3,COc1ccc(Cl)cc1C(=O)N/N=C/c1ccc(N2CCOCC2)cc1,active: 11.2 µM
4,Cc1ccccc1NC(=O)CSc1nc2cc3c(cc2cc1C)CCC3,"inconclusive: 39.8 µM [inhibitor, single point]"
5,COc1ccc(Nc2ncnc3c2cnn3-c2ccccc2)cc1OC,"inconclusive: 2.82 µM [inhibitor, full curve]"
6,CCOC(=O)c1ccc(NC(=O)CSC2=NC(=O)C(CC)C(=O)N2)cc1 (centres undefined),"inconclusive: 25.1 µM [inhibitor, single point]"
7,O=C(CCc1c[nH]c2ccccc12)NC1CC1,inactive
8,C(=N\N1CCOCC1)/c1nc(-c2ccccc2)n2ccccc12,"inconclusive: 14.1 µM [inhibitor, partial curve]"
9,CC(=O)C1=C(O)C=C2Oc3c(C(C)=O)c(O)c(C)c(O)c3C2(C)C1=O (centres undefined),inactive
10,Cc1ccc(-n2nc(C)c(Sc3ccccc3[N+](=O)[O-])c2N)cc1,"inconclusive: 28.2 µM [inhibitor, partial curve]"
11,COc1cc(Br)cc(CNc2ccc(F)c([N+](=O)[O-])c2)c1O,active: 15.8 µM
12,Cn1c(Oc2ccc(Cl)cc2)nc2c1c(=O)n(Cc1ccc(F)cc1)c(=O)n2C,inactive
13,CCOC(=O)c1c(N)sn(-c2ccccc2)c1=S,inactive
14,CC1(OC(=O)c2ccc(Cl)nc2)C(=O)C=C2C=C(c3ccc(C#N)cc3)OC=C2C1=O (centres undefined),active: 25.1 µM
15,COc1ccc(CCNC(=O)C2COc3ccccc3C2)cc1OC (centres undefined),inactive
16,CCOC(=O)c1c(C)[nH]c(/C(C)=N/O)c1C,inactive
17,COc1ccc(C(=O)Nc2cc(C(C)=O)c(/C=C/N(C)C)oc2=O)cc1,"inconclusive: 15.8 µM [inhibitor, partial curve]"
18,O=C1C2C3C=CC(C4CC34)C2C(=O)N1/N=C/c1ccc(-c2ccccc2[N+](=O)[O-])o1 (centres undefined),"inconclusive: 35.5 µM [inhibitor, partial curve, poor fit]"
19,O=C(CSc1cccc[n+]1[O-])Nc1cccc(S(=O)(=O)NC2=NCCCCC2)c1,inactive
20,Nc1nc(-c2cc3ccccc3o2)cs1,"inconclusive: 14.1 µM [inhibitor, partial curve, poor fit]"
21,Cc1ccc(OCCCSc2nc(-c3ccc(C(C)(C)C)cc3)nc3cc(=O)[nH]n23)cc1C,inactive
22,COc1ccc(C=C2C(=O)OC(C)(C)OC2=O)cc1OC,inactive
23,c1ccc(C(CN2CCOCC2)c2ccccc2)cc1,inactive
24,O=C(Oc1ccccc1C(=O)Nc1ccccc1)c1ccc(Br)c([N+](=O)[O-])c1,active: 10 µM
